The source of these data is PubChem BioAssay AID1240 (Sanford-Burnham Center for Chemical Genomics, 2008).

Hit rate of the full screen: of about 50,000 compounds, about 800 (1.6%) showed an effect of 50% or more. This is one part of the list.

The assay has as its target Bcl-2-like protein 10 (Homo sapiens) (UniProt Q9HD36). Kind of assay: Phenotype converters, Bcl-B/TR3 peptide binding displacement, primary biochemical FP (AID 1240).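 Further: 0% = Bcl-B with tracer peptide and DMSO and 100% = tracer peptide lacking Bcl-B.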 As to conditions: GST-Bcl-B / FITC-TR3 peptide fluorescence polarization; stronger effect = higher value; compound at 3.75 mg/L.
Sequence of UniProt Q9HD36 (Q9HD36 whole entry, looked up): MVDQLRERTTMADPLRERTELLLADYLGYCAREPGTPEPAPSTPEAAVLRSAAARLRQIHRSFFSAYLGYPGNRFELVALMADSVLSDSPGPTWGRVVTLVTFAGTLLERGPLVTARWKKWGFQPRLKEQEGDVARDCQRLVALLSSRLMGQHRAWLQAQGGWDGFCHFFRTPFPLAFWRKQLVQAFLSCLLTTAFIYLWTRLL
`O=C(NCc1ccccc1Cl)C(=O)NC1CC1`: the displacement turned out to be 5.6%.

For `CCCOc1cccc(C(=O)Nc2scc(-c3ccccc3Cl)c2C(=O)OC)c1`, the displacement was determined as 5.1%.

`CN1CCN(c2ccc([N+](=O)[O-])cc2/C=N/NC(=O)CCc2ccccc2O)CC1`: the displacement is -10.4%.

`CC(C)(C)c1csc(N/N=C/c2ccc(O)cc2)n1`: the displacement is -18.6%.

With `C=CCNC(=O)/C(=C/c1ccc(C)cc1)NC(=O)c1ccc(C)cc1`, the displacement was determined as 12.7%.

As for `Cc1ccc(S(=O)(=O)N2CCC(Cc3ccccc3)CC2)cc1C`, the displacement is 10%.

For `O=C(Nc1cccc(Cl)c1)/C(=C\c1cccs1)NC(=O)c1cccs1`, the displacement is -15.7%.

Regarding `O=C(NCc1cccnc1)c1ccc(S(=O)(=O)N2CCOCC2)cc1`, the displacement stood at 8.7%.

On to `O=C1NC(=Nc2ccc(Br)cc2)S/C1=C\c1ccc2c(c1)OCO2`, for which the displacement was 68.8%.

Consider `C=CCn1c(SCC(=O)N2CCOCC2)nc2sc3c(c2c1=O)CCCC3`, for which the displacement is 0.6%.

For the molecule `CSc1ccc(/C=C/C(=O)c2ccc(NC(=O)c3cccs3)cc2)cc1`, the displacement is 8.5%.

Consider `O=C(COc1ccc2ccc(=O)oc2c1)Nc1ccccn1`, for which the displacement came out at 29%.

Turning to `O=C(O)CCCC(=O)N1CCN(Cc2ccccc2)CC1`, the displacement was 0.5%.

As for `CC(C)NC(=O)c1ccc(I)cc1`, the displacement worked out at 12.7%.

Regarding `O=C(Nc1ccccn1)c1ccc2c(c1)OCO2`, the displacement was -1%.

As for `O=C(CN1CCN(C(c2ccccc2)c2ccccc2)CC1)Nc1ccc(F)cc1`, the displacement came to 9.6%.

Regarding `O=C(N=C1SCC(=O)N1c1ccccc1Cl)c1ccco1`, the displacement came to 7.9%.

Take `Cc1ccc(C)c(NC(=O)C2CC(=O)N(c3ccc(Br)cc3)C2)c1` (stereo unspecified): the displacement was 0.6%.

Take `CC(=O)c1ccc(NC(=O)C2CCC2)cc1`: the displacement is -10.9%.

As to `CCCOc1cccc(C(=O)Nc2ccc(F)c([N+](=O)[O-])c2)c1`, the displacement worked out at 13.4%.

With `CCN(CC)C(=O)N1c2ccccc2CCc2ccccc21`, the displacement is -7.4%.

For `CCn1c(O)c(/C=N/N=C2CCCC2)c2ccc(C3=NNC(=O)CC3)cc21`, the displacement was 45.9%.

Regarding `O=C(CCNc1n[nH]c(=O)[nH]c1=O)N/N=C/c1c[nH]c2ccccc12`, the displacement was -14.6%.

Turning to `Cc1ccc(-n2c(=O)c3cc4c(=O)n(-c5ccc(C)c(C)c5)c(=O)c4c(C(=O)c4ccccc4)c3c2=O)cc1C`, the displacement worked out at 12.2%.

For the molecule `O=C(/C=C/c1ccco1)NC(=S)Nc1ccccc1`, the displacement was -6.7%.

In the case of `COc1ccc(-c2noc(-c3ccc(-c4ccccc4)cc3)n2)cc1`, the displacement is -11.4%.

As for `Cc1ccc2ccc(S(=O)(=O)NCc3ccco3)cc2c1`, the displacement was -6%.

Take `COc1ccc(NC(=O)CN2C(=O)/C(=C/c3cccc(Br)c3)SC2=S)cc1`: the displacement worked out at 11.6%.

For `O=C(CSc1nc2ccccc2s1)N(c1ccccc1)c1ccccc1`, the displacement is -12.8%.

For the molecule `O=C(Nc1cccc(-c2nc3ccccc3o2)c1)c1ccc(NC(=O)c2ccc([N+](=O)[O-])o2)cc1`, the displacement was found to be 2.4%.

In the case of `O=C(NCc1ccco1)C1CN(S(=O)(=O)c2ccccc2)CCN1S(=O)(=O)c1ccccc1` (stereo unspecified), the displacement is 9.8%.

As for `Cc1ccc(/C(O)=C2\C(=O)C(=O)N(c3ccc(O)cc3)C2c2ccc(C)cc2)cc1` (stereo unspecified), the displacement is -11.3%.

`CCOC(=O)c1c(C)[nH]c(/C=C(\C#N)C(=N)N2CCOCC2)c1O`: the displacement came out at 40.9%.

Turning to `COc1ccc(CNC(=O)c2cccc(N(C)C)c2)cc1`, the displacement was found to be 7.1%.

With `CN1C(=O)/C(=C\c2ccc(OCCOc3ccc(C(C)(C)C)cc3)cc2)SC1=S`, the displacement worked out at 6%.

Take `COCC(O)CS(=O)(=O)Cc1ccc(Cl)cc1` (stereo unspecified): the displacement was 0.9%.

Regarding `O=C(/C=C/c1ccc(OCc2ccccc2)cc1)c1cccc(Br)c1`, the displacement was found to be 8.8%.

With `CC(=O)C1=C(O)C(=O)N(c2nc3ccccc3s2)C1c1ccc(Cl)cc1` (stereo unspecified), the displacement is -2.6%.

As for `CC(=O)N1CCN(C(CNS(=O)(=O)c2ccc(C)cc2)c2ccccc2)CC1` (stereo unspecified), the displacement is 0.1%.

For the molecule `COc1ccc(C(=O)/C=C/c2ccc(SC)cc2)cc1OC`, the displacement is -19.8%.

Consider `O=C(Nc1nc2ccccc2[nH]1)C1CCCO1` (stereo unspecified), for which the displacement came to 8.5%.

Turning to `CN1C(=O)C(=Cc2ccccc2OCc2ccc([N+](=O)[O-])cc2)C(=O)N(C)C1=O`, the displacement worked out at 11%.

As to `O=C1C2C(C(=O)N1/N=C/c1ccc(Cl)cc1)C1C=CC2C12CC2` (stereo unspecified), the displacement turned out to be 11.4%.

As to `COc1ccc(N(CC(=O)NN=C2CCN(C)CC2)S(=O)(=O)c2ccccc2)cc1Cl`, the displacement was determined as 5.2%.

`Cc1cc2ncn(CC(O)COc3ccc4ccccc4c3Br)c2cc1C` (stereo unspecified): the displacement is 17%.

For `COc1ccc2nc(NC(=O)COc3ccccc3Cl)sc2c1`, the displacement was 6.7%.

As for `O=C(O)c1cccc(COc2ccc(C=C3C(=O)c4ccccc4C3=O)cc2)c1`, the displacement came out at 21.8%.

As for `COc1ccc(CCC(=O)C2(O)CCCCC2)cc1`, the displacement is -12.8%.

For the molecule `CC(=O)Nc1ccc(/C=N/c2nc3c(C)cc(C)cc3s2)cc1`, the displacement came out at 3.9%.

As for `N#CCOc1ccccc1/C=C1/SC(=S)NC1=O`, the displacement was found to be 8%.

For the molecule `O=C(Oc1ccccc1)Oc1c(Cl)cc2oc(=O)sc2c1Cl`, the displacement is -6.8%.

As to `O=S(=O)(Nc1ccc(-c2nc3ccccc3o2)cc1)c1ccccc1`, the displacement was 6.4%.

For the molecule `O=C(NCC1CCCO1)C(=O)Nc1ccccc1Cl` (stereo unspecified), the displacement was -16.2%.

As to `Cc1c(Cc2ccccc2)c(=O)oc2c(C)c(OCC(=O)C(C)(C)C)ccc12`, the displacement was -3.2%.

For the molecule `COc1ccc(CN2CCN(C(=O)c3cccc(Cl)c3)CC2)c(OC)c1OC`, the displacement was -7.7%.

As for `CN1C(=O)C(=Cc2ccc(OCCOc3ccc([N+](=O)[O-])cc3)cc2)C(=O)N(C)C1=O`, the displacement worked out at 9.9%.

Take `CCOc1ccc(-c2cc(C(=O)NCc3ccc(F)cc3)c3ccccc3n2)cc1`: the displacement was -12.8%.

Regarding `O=[N+]([O-])c1cc(-n2ncnc2-c2ccccc2C(F)(F)F)ccc1Cl`, the displacement was -4.8%.

`COc1ccc(NC(=O)c2cc3n(n2)C(C(F)(F)F)CC(c2ccc(Cl)c(Cl)c2)N3)c(OC)c1` (stereo unspecified): the displacement was found to be 3.4%.

For the molecule `Cc1onc(-c2c(Cl)cccc2Cl)c1C(=O)N1CCN(c2cccc(Cl)c2)CC1`, the displacement was found to be 12.6%.

As for `COc1ccc(CN2CCN(S(=O)(=O)c3ccc(C)cc3)CC2)cc1`, the displacement was found to be 0.1%.

Regarding `Cc1c(Cl)cccc1NC(=O)C1c2ccccc2Oc2ccccc21`, the displacement was found to be 11.9%.

Take `O=C1NC(=S)S/C1=C/c1cc2c(cc1Cl)OCO2`: the displacement worked out at 28.9%.

As for `Cc1ccc(/C=C2\SC(=S)N(CC(=O)O)C2=O)o1`, the displacement was 26.5%.

Regarding `CCOC(=O)C1=C(C)NC(=O)N(C(C)=O)C1c1cccc([N+](=O)[O-])c1` (stereo unspecified), the displacement turned out to be 0.4%.

As to `CCOC(=O)c1ccc2c(c1)C1C=CCC1C(c1ccc(Br)cc1)N2` (stereo unspecified), the displacement was found to be 14.5%.

As for `CCn1c2ccccc2c2cc(CN3CCN(Cc4ccc(OC)c(OC)c4OC)CC3)ccc21`, the displacement came out at 2.1%.

For `Fc1ccc(NC(=S)NCCC(c2ccccc2)c2ccccc2)cc1`, the displacement was -7.4%.

For the molecule `COc1ccc(N=Cc2ccc(C)o2)cc1`, the displacement is -9.7%.

In the case of `C=CCn1c(/C=C(/OC(=O)c2ccccc2)c2ccccc2)nc2ccccc21`, the displacement was found to be 9.4%.

Turning to `Cc1ccccc1-c1nc(-c2ccc(F)cc2)no1`, the displacement is -7%.

With `O=C(N/N=C/c1ccco1)c1cc(-c2ccc(Cl)cc2)n[nH]1`, the displacement is -6%.

On to `O=C(NCC1CCCO1)c1ccc(Cl)cc1` (stereo unspecified), for which the displacement was -11.3%.

`COc1cc(/C=N/NS(=O)(=O)c2ccc(C(C)(C)C)cc2)cc(OC)c1OC`: the displacement stood at 5.5%.

As to `N/C(=N/OC(=O)c1cccc([N+](=O)[O-])c1)c1ccc(Br)cc1`, the displacement was found to be 28.7%.

With `O=C(N/N=C\c1cn(-c2ccccc2)nc1-c1ccccc1)c1ccc([N+](=O)[O-])cc1`, the displacement amounted to 3.3%.

For the molecule `C=CCN1C(=O)/C(=C\c2ccc(C(=O)OC)cc2)SC1=S`, the displacement was determined as 7.8%.

For `Cc1cc(C)cc(NC(=O)c2ccc([N+](=O)[O-])o2)c1`, the displacement is -3.3%.

Regarding `COc1ccc(/C=N/NC(=O)C(=O)NCc2ccccn2)cc1`, the displacement is -5.1%.

For the molecule `COc1ccc(OC)c(C2C(C(C)=O)=C(O)C(=O)N2CC2CCCO2)c1` (stereo unspecified), the displacement was -5.4%.

Consider `COc1ccc(C(=O)Nc2ccc3nn(-c4ccc(C)c(Cl)c4)nc3c2)cc1[N+](=O)[O-]`, for which the displacement turned out to be 12.7%.

Regarding `O=C(CCNS(=O)(=O)c1ccccc1[N+](=O)[O-])Nc1ccc(Br)cc1`, the displacement came out at 8.1%.

For the molecule `C/C(=N\N=C1\NC(=O)C(CC(=O)Nc2cccc(C)c2C)S1)C(C)(C)C` (stereo unspecified), the displacement came out at 10.5%.

On to `Cc1ccc(-c2cc3nc(C)c(Cl)c(=O)n3[nH]2)cc1`, for which the displacement was 19.2%.

`COc1cc(/C=C2/SC(=S)N(C)C2=O)cc(Br)c1OCc1ccc(F)cc1`: the displacement stood at 17.9%.

Regarding `CCOC(=O)CCCN1C(=O)S/C(=C/c2ccccc2)C1=S`, the displacement was found to be 6.7%.

As for `O=C1CC(N2CCC(O)(c3ccc(Br)cc3)CC2)C(=O)N1c1ccc(Cl)cc1` (stereo unspecified), the displacement was -2.5%.

In the case of `COc1cc(/C=C2\C(=O)N(c3ccc(S(N)(=O)=O)cc3)N=C2C)cc(Cl)c1OCc1ccccc1`, the displacement was 5.5%.

For the molecule `CCOC(=O)COc1ccc(/C=C2\C(=O)NN(c3ccc(Cl)c(Cl)c3)C2=O)cc1OC`, the displacement is 14.2%.

Turning to `CCOC(=O)C1=C(O)/C(=C/c2ccc(Cl)cc2)SC1=Nc1ccc([N+](=O)[O-])cc1`, the displacement was -7.6%.

With `O=C(Nc1cccc(Br)c1)c1cc([N+](=O)[O-])ccc1Cl`, the displacement is 3.8%.

As to `CCCCOC(=O)c1ccc(NC(=S)NC(=O)c2ccco2)cc1`, the displacement is 12.6%.

Regarding `O=C(Nc1ccc(S(=O)(=O)Nc2nccs2)cc1)C(Cl)(Cl)Cl`, the displacement amounted to 6.4%.

Take `CC1=C(C(=O)Nc2ccccc2C)C(c2ccc3c(c2)OCO3)C2=C(CC(C)(C)CC2=O)N1` (stereo unspecified): the displacement is 5.9%.

With `O=C(/C=C/c1ccc(F)cc1)N1CCN(c2ccc(Cl)cc2)CC1`, the displacement came out at 1.7%.

On to `O=C(Nc1ccc(N2CCCCC2)c(Cl)c1)c1ccc([N+](=O)[O-])cc1Cl`, for which the displacement came to 4.8%.

Consider `Cc1ccc(C(=O)Nc2ccccc2C(=O)Nc2ccncc2)cc1`, for which the displacement is -6.8%.

Regarding `O=c1nc(/C=C/c2cccn2-c2ccc([N+](=O)[O-])cc2)cc(C(F)(F)F)[nH]1`, the displacement turned out to be 6.6%.

Take `COc1ccc(Oc2coc3cc(OCC(=O)O)ccc3c2=O)cc1`: the displacement was -5.1%.

With `O=C1C=CC(=O)N1c1ccccc1SC(F)(F)F`, the displacement turned out to be 11.7%.

For `COc1ccc(C2=C(Nc3ccccc3)c3ccccc3C2=O)cc1`, the displacement came out at 21.7%.

With `O=C(O)c1ccccc1SC1CC(=O)N(c2ccccc2F)C1=O` (stereo unspecified), the displacement came to 5.6%.

Take `C=CCOc1ccc(/C=C2/C(=O)NN(c3ccc(C(=O)OCC)cc3)C2=O)cc1OC`: the displacement is -1%.

On to `COc1ccccc1-c1coc2cc(OC(=O)c3cccc(Cl)c3)ccc2c1=O`, for which the displacement turned out to be 6.5%.

Consider `COc1ccc(/C(N)=N/OC(=O)COc2ccc3ccccc3c2)cc1`, for which the displacement was determined as 9.1%.

As to `CCCCc1ccc(-c2csc(/C(C#N)=C/c3ccc(OC)c(OC)c3)n2)cc1`, the displacement turned out to be 4.8%.
